Some of the results follow.

For the assay, the system named is PfSIP2 AP2 domain 1 (GST-tagged). Briefly: gcPBM binding intensity (ln(normalized median fluorescence intensity)); higher = stronger DNA binding. A digest of the protocol:
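The highest Masliner-normalised natural-log median intensity across replicate spots of either probe orientation is reported as binding intensity. GST-tagged P. falciparum DNA-binding domains expressed in E. coli were applied for 1 h to an Agilent 4 × 180k array of primer-extended double-stranded 36-bp intergenic genomic probes plus negative controls, and bound protein was detected with Alexa488 anti-GST antibody and scanned at 488 nm.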
With TACATCATACGAACAGTGCATATTATTATTGTTCTG, the “gcPBM binding intensity (ln)” value stood at 8.05. Consider “TATATATCATATGATACATGCAACAAAATGCATAAT [TGCATGCA_site205]”, for which the “gcPBM binding intensity (ln)” value stood at 7.16. The value for “TACTTACCAAAATACACACACACACTAGATATATAA [CACACA_site5096]” was 7.2. In the case of “ATGTATATTACTCATTGTACTTATATTTTCTTATTA [XGTACX_site8897]”, the “gcPBM binding intensity (ln)” value is 6.98. Turning to “GTATTTATAAATTATAGTACTTTGCGTATCATATAT [XGTACX_site7358]”, the “gcPBM binding intensity (ln)” value amounted to 7.19.

“ATTTTATATCTGGATAGTACTTTAATATTTCAAATG [XGTACX_site7304]”: the “gcPBM binding intensity (ln)” value came to 7.04.

For the sequence “GGATATTCATTAACCACACACACAAAAAAAATAAAA [CACACA_site3800]”, the “gcPBM binding intensity (ln)” value stood at 7.18. On to “TTATATTATACATACACACCCATATAATATGTTTTT [CACACA_site4636]”, for which the “gcPBM binding intensity (ln)” value is 7.06. As to “TCTTATGAATATCCCCGTACACATATATTTCTTATA [XGTACX_site6877]”, the “gcPBM binding intensity (ln)” value was 7.22. Turning to “TTGTTTTTGTTCTTGGGTACTTAAATTATAAATGAT [XGTACX_site113]”, the “gcPBM binding intensity (ln)” value was 7.35.

“AGCTACACACCACAATGTACATAAATATATATGTGA [XGTACX_site1483]”: the “gcPBM binding intensity (ln)” value is 7.03. As for “AGAATATTTAATTCAACACACATACATATTTATTAA [CACACA_site5318]”, the figure is 6.8; as for “TATTGTATATACTATACACACACATACATACATACA [CACACA_site8172]”, 8.03. “CAAATATACATATGTAGTACATGTTGTAGATAATTT [XGTACX_site2790]”: the “gcPBM binding intensity (ln)” value was 7.15. As for “ATATATTTATATAAATGTACATACAGCACATTTATA [XGTACX_site4725]”, the figure is 7.05; as for “GGATAATATATTAGAACACACATATAGATGTAAAAA [CACACA_site6229]”, 6.91; as for “GAAGCCCTATGAAAAGTGCGGTTCATGAACAAAGAA [GTGCAC_site9828]”, 7.54. As for “TACTTTATATAAAGATCAAAAAATAAATAATTATAA [TGCATGCA_negctrl_site446]”, the figure is 6.84; as for “ATAAGGAAGGGATGCACACAAAAGGGTACATAAGAA [CACACA_site4006]”, 7.5. For “TTTGAATCCTTATATACACACATTATAAAATATTAT [CACACA_site6406]”, the “gcPBM binding intensity (ln)” value was 7.14.

Turning to “TATTTGTAAATCGATACACACATATAGATTAATATA [CACACA_site6237]”, the “gcPBM binding intensity (ln)” value came to 6.81.

In the case of “GGTTCATTAAAGTGTACACATAAATACCGTAACATT [CACACA_site6002]”, the “gcPBM binding intensity (ln)” value is 7.43. For the sequence “CTAAGGTATGATTAATCACACACATAAATATATATA [CACACA_site8847]”, the “gcPBM binding intensity (ln)” value was 7.38.

As for “AGAATAAGAATTATTAGTACTTATAAATATTATATT [XGTACX_site7228]”, the “gcPBM binding intensity (ln)” value was 6.89. Regarding “TAATTTAAAATATATAGTACACACGTGAACACAAAT [XGTACX_site792]”, the “gcPBM binding intensity (ln)” value turned out to be 7.36.

Turning to “CTATTACATTAAATGTGTACATATATATATATATAT [XGTACX_site5233]”, the “gcPBM binding intensity (ln)” value is 9.28. With “GTAAATACACATATGTGTACATATATATATATATAT [XGTACX_site3696]”, the “gcPBM binding intensity (ln)” value amounted to 9.71. As to “GTGGCTACTATATATTGTACGATATTATATATATAC [XGTACX_site8376]”, the “gcPBM binding intensity (ln)” value came to 6.98.

For “TAAAATATCATAGATAGTACATATAACGTTTTATAT [XGTACX_site5666]”, the “gcPBM binding intensity (ln)” value amounted to 6.99.

Take “ATCGAAATTTTAGAATATATATGATGTTACTTAAGT [GTGCAC_negctrl_site611]”: the “gcPBM binding intensity (ln)” value was 6.93.

With “CATGACATAAAAAATATACACACTATAATATATATA [CACACA_site1402]”, the “gcPBM binding intensity (ln)” value turned out to be 7.62.

Regarding “ATGAAAATTTATATTGCACACATAGGGAATAAAAAA [CACACA_site8667]”, the “gcPBM binding intensity (ln)” value was found to be 7.42.

With “AAATATATTATATTTAGTACGCATATATAATATGCA [XGTACX_site4835]”, the “gcPBM binding intensity (ln)” value came to 6.87. The value for “AGTTAATTAATAGGCACACATATATATGTATAAATA [CACACA_site523]” was 7. As for “ACCATATAAATAAACACACACACACCCATATATATA [CACACA_site2321]”, the figure is 7.76; as for “TATATATCTATATTTACACACAGTTACTATGTAGAT [CACACA_site7532]”, 6.78; as for “GTTAAACTTAATATCGGTACACACACAAGATAAGAA [XGTACX_site1660]”, 7.45.

On to “ATAATATGTATAATCACACATTTTTCTTTTAAGACA [CACACA_site5297]”, for which the “gcPBM binding intensity (ln)” value amounted to 6.82. With “TATTTTTTTTGTCATATATAAGAAACGCTCTTCTTT [TGCATGCA_negctrl_site127]”, the “gcPBM binding intensity (ln)” value was determined as 6.94. The value for “ATATTTATATTTTCATGTACGTATTTTTATATATAT [XGTACX_site8478]” was 7.47; that for “TGAAATAAAATTTGTACACACATATTTATTTATATA [CACACA_site6421]” was 6.86; that for “TGCATTATATTAAATTTTTTATTTGTTGATGTTATA [GTGCAC_negctrl_site371]” was 6.76.

Take “AAATAAAAGATATTTTTACACACTTTTGATGAGATC [CACACA_site9000]”: the “gcPBM binding intensity (ln)” value worked out at 6.75. “ATATATATACATATAACACACACATATATATATATA [CACACA_site8827]”: the “gcPBM binding intensity (ln)” value came out at 9.22. Regarding “TTGTATTTATTTATGGGAGGATTATAATCATTGTAG [GTGCAC_negctrl_site268]”, the “gcPBM binding intensity (ln)” value is 7.21.

Turning to “TAATTCACATTTTATACACACATTCGAACCTTTTTT [CACACA_site3341]”, the “gcPBM binding intensity (ln)” value is 6.92. As for “ATTTTTATTAGTTATTGTACTTATTATTTATTAATT [XGTACX_site2568]”, the figure is 7.03; as for “TATAGATATATACGGTGTACATACATAAAAAAAAAA [XGTACX_site1648]”, 7.27.

Take “TATAGTCAACTAGTCACACATATAATTATATATATA [CACACA_site5872]”: the “gcPBM binding intensity (ln)” value came out at 7.95. The value for “TATAAAGAAATCATTACACACAAATAAATACATACA [CACACA_site2675]” was 7.05; that for “GGTTAGACGAAATATACATGCAATGGAAAATAAGTT [TGCATGCA_site23]” was 6.97. Consider “ATATTAATTTCTCATGCATGTTCTTCCCAATTGTAA [TGCATGCA_site425]”, for which the “gcPBM binding intensity (ln)” value worked out at 7.19. As for “TCATCATGTATGTACACACATACATATATTATGTAC [CACACA_site1386]”, the figure is 7.01; as for “CTTTTTGAAATATTAACACACATTTTGTTAATGAAT [CACACA_site6087]”, 6.99.

In the case of “CACAAGAAAATTCACACACACACATATATATATATA [CACACA_site3880]”, the “gcPBM binding intensity (ln)” value is 9.31. The value for “TCCTTAATTCAAAAAATAATATCTTATATTTCAAAT [CACACA_negctrl_site1592]” was 6.83; that for “GGAATAAAGACAGCACGTACATATCTTACGAAGCTC [XGTACX_site3918]” was 6.97. With “AACACTCAAAAAAATTTAAATAAAAAAAAAAAAAAA [CACACA_negctrl_site680]”, the “gcPBM binding intensity (ln)” value was determined as 6.91. As for “ATGATTTTTTTTATTTTTTAGCTAGAGCTAGCTTAT [CACACA_negctrl_site433]”, the figure is 6.81; as for “TATGGAAGAAAATATACACACAAAAAAAAAAAATGG [CACACA_site4924]”, 6.99; as for “ATATGTTAAAAATTCACACAAAAAAGTATACAGATA [CACACA_site4179]”, 7.03. For the sequence “TATGAATGCTTTTATGCACACGTACAAAAATATTAT [CACACA_site8851]”, the “gcPBM binding intensity (ln)” value is 7.22. The value for “TTACCTATTCTAAAATGTACACATTATATATGTGCT [XGTACX_site5776]” was 7.2. As for “ACATGTTTCATATGTTGTACTAACTTAAATATAAAT [XGTACX_site6412]”, the “gcPBM binding intensity (ln)” value came to 7.21. The value for “TTGTACATCTTTTGCACACGTAATGTTATTAAAATA [CACACA_site4827]” was 7.51; that for “TGTATATTTGTTGTTACACACATATATTTTTTTTTT [CACACA_site128]” was 6.92.

As to “TTAACTATAATAAAATGTACATATGTAACATATATA [XGTACX_site7790]”, the “gcPBM binding intensity (ln)” value stood at 7.06. Take “TTATAACAAAAAATTAAAGAAAGAGAATAAGTGAAA [CACACA_negctrl_site975]”: the “gcPBM binding intensity (ln)” value was 7.11. On to “AGGTCCTACACCAATAAATATCATATATATATTATA [CACACA_negctrl_site568]”, for which the “gcPBM binding intensity (ln)” value came out at 6.98. As for “TTGATATCTTTTTTTTGTACATATATTTATAAGTAA [XGTACX_site3538]”, the figure is 6.9; as for “TTTTAGAGTGATATATATTAACTTTTAATAAAAAAA [CACACA_negctrl_site611]”, 6.71. The value for “AAAATATAAGCCACTACACACATATATAAATGTATA [CACACA_site2639]” was 7; that for “TTTTTTTAAATTATATGTACATAATTTTAATTTTAT [XGTACX_site5086]” was 7. As to “GTTATACACATATATACACACATATGTAGATATATA [CACACA_site7529]”, the “gcPBM binding intensity (ln)” value came out at 7.01. The value for “TAAAGTACAGGAGTAAATTGAAAAAAAAAAAAAAAA [CACACA_negctrl_site1410]” was 6.76.

For “TATAATATTCCTTTTTAACACACATATGAACAAATA [CACACA_site7932]”, the “gcPBM binding intensity (ln)” value came to 7.04. As for “ATAAATAAATAAATACGTACATATATATATATATAT [XGTACX_site8838]”, the figure is 8.89; as for “ATACATATATTTTTATGTACATATATTTTTTTTGTA [XGTACX_site4546]”, 7.15. As for “ATAATGATTATAATATGTACATAAATATATATATTA [XGTACX_site5029]”, the figure is 7.2; as for “AAACAATACATATATTGTACATATATTATATTATAT [XGTACX_site8136]”, 7.

As for “CGGATCTATAAGTGTACACAATCTAGCGAAAAGTTT [CACACA_site4932]”, the “gcPBM binding intensity (ln)” value was determined as 7.06.

For the sequence “TTAGAAATTCATTTTACACACAATTCAAAAGAATGT [CACACA_site2104]”, the “gcPBM binding intensity (ln)” value stood at 6.64. Turning to “AATTTGAAATAAAGTAGTACAGTATATAAAAATATA [XGTACX_site128]”, the “gcPBM binding intensity (ln)” value stood at 6.99.

Take “AAAAAATCAAAACACACACACACACCCAAAAAAAAA [CACACA_site1444]”: the “gcPBM binding intensity (ln)” value came to 7.04. As for “ATAAAATAAAAAAGTAGTACACACTTCACGATATTT [XGTACX_site8289]”, the figure is 7.18. The value for “ATTATGTTATATATATGTACATATATAATGTTCATA [XGTACX_site6184]” was 7.14. In the case of “AATAAATAAACAAATTAACACACAGAATTTTTTTTT [CACACA_site8485]”, the “gcPBM binding intensity (ln)” value was determined as 6.82. As for “ATAATTATAAAATAAACACACATATATATTTATATG [CACACA_site440]”, the figure is 6.82.

The values above are taken from the supplement of paper PMC11417369.
